Results on 84 compounds are retold here after the supplement of paper PMC10600219.

Where a name gives a salt, the structure may show the parent alone. In all, about 2,800 compounds were measured (“cell viability relative to vehicle”: median about 1.1, lowest 2% from about 0.19 on). Some of the results follow.

The subject of the assay is NCI-H2228 parental. In words: cell viability relative to vehicle (fraction of vehicle); NCI-H2228 is an ALK-positive lung cancer line and DTP means drug-tolerant persister; higher = less growth inhibition. As to conditions: 100 nM; treatment time 6 days. The method, boiled down: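 Drug-tolerant persister NCI-H2228 cells, produced by 13 days in 1000 nM of a targeted drug, and their parental counterparts were seeded into 384-well plates and, the following day, given the 3114-agent TargetMol anti-cancer compound library at 100 nM or DMSO vehicle. After 6 days, the CellTiter-Glo 3D Cell Viability Assay was used to read ATP. Each entry reports viability compared with vehicle-treated cells.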
With `Cc1nn(C)c2c1C(c1ccc(C(F)(F)F)cc1)C(C#N)=C(N)O2` (centres undefined), the cell viability was 0.891.

In the case of `O=C1C(O)=C([C@H]2CC[C@H](c3ccc(Cl)cc3)CC2)C(=O)c2ccccc21` [Atovaquone], the cell viability turned out to be 1.02.

In the case of `Cc1ccc(/C=C2\CNC/C(=C\c3ccc(C)cc3)C2=O)cc1`, the cell viability worked out at 1.06. As to `Cc1ccccc1C(OCCN(C)C)c1ccccc1` (centres undefined) [Orphenadrine hydrochloride], the cell viability worked out at 0.917.

For the compound `CN(C)CCOC(c1ccc(Cl)cc1)c1ccccn1` (centres undefined) [Carbinoxamine Maleate Salt], the cell viability was 1.15. On to `O=C1CCc2ccc(OCCCCN3CCN(c4cccc(Cl)c4Cl)CC3)cc2N1` [Aripiprazole], for which the cell viability was 1.31. On to `O=C(O)CNC(=O)c1nc(Cl)c2ccccc2c1O`, for which the cell viability was 0.934. To `NC(=O)NC1NC(=O)NC1=O` (centres undefined) [Allantoin] belongs 0.86; to `CCOCc1nc2c(N)nc3ccccc3c2n1CC(C)(C)O` [Resiquimod], 1.06; to `CCCCCCCCCCCC1=C(O)C(=O)C=C(O)C1=O` [Embelin], 1.06.

For `CCC(Sc1nnc2c(n1)[nH]c1ccccc12)C(=O)N1c2ccccc2Sc2ccccc21` (centres undefined) [Inauhzin], the cell viability is 1.07. Turning to `COc1c2ccoc2cc2oc(=O)ccc12` [Bergapten], the cell viability is 1.06.

On to `CCN(CC)CCOc1ccc(C(=C(Cl)c2ccccc2)c2ccccc2)cc1` [Clomifene citrate], for which the cell viability turned out to be 1.02. With `C[C@]1(COc2ccc(N3CCC(Oc4ccc(OC(F)(F)F)cc4)CC3)cc2)Cn2cc([N+](=O)[O-])nc2O1` [Delamanid] the figure was 0.9; with `CC(C)=CCC/C(C)=C/CC/C(C)=C/CSc1ccccc1C(=O)O` [Salirasib], 1.19; with `CCCCCOC(=O)Nc1nc(=O)n([C@@H]2O[C@H](C)[C@@H](O)[C@H]2O)cc1F` [Capecitabine], 1.25.

`COc1cc2ncnc(Oc3ccc(CC(=O)Nc4cnn(C(C)C)c4)cc3)c2cc1OC`: the cell viability was determined as 1.21.

As for `CN1CCC(=C2c3ccccc3CCc3sccc32)CC1` [Pizotifen Malate], the cell viability stood at 0.978. With `CN1CCC(=C2c3ccccc3CCc3sccc32)CC1` [Pizotifen] the figure was 1.36. With `COc1ncc(-c2ccc3nccc(-c4ccnnc4)c3c2)cc1NS(=O)(=O)c1ccc(F)cc1F` [Omipalisib] the figure was 0.148. To `O=C(O)COCCN1CCN([C@H](c2ccccc2)c2ccc(Cl)cc2)CC1` [Levocetirizine] belongs 1.27; to `Cc1cc(-c2ncc(CC(=O)Nc3ccc(-c4cnccn4)cn3)cc2C)ccn1`, 1.04; to `Cc1cnc(C(=O)NCCc2ccc(S(=O)(=O)NC(=O)NC3CCCCC3)cc2)cn1` [Glipizide], 0.99. `COC(=O)/C=C/c1ccc(O)c(OC)c1`: the cell viability stood at 1.08. To `FC(F)(F)c1ccc(CNc2ccc(Cc3c[nH]c4ncc(Cl)cc34)cn2)cc1` belongs 1.07; to `CCCNc1nc(NCCC)nc(N(C)OC)n1`, 1.08; to `CC1=C(/C=C/C(C)=C/C=C/C(C)=C/C(=O)Nc2ccc(O)cc2)C(C)(C)CCC1=O` [4-Oxofenretinide], 1.11. To `c1cc(-c2cnn3cc(-c4ccc(OCCN5CCCCC5)cc4)cnc23)ccn1` [Dorsomorphin dihydrochloride] belongs 1.08; to `c1cc(-c2cnn3cc(-c4ccc(OCCN5CCCCC5)cc4)cnc23)ccn1` [Dorsomorphin], 0.999. As to `O=C1[C@H](CC[C@H](O)c2ccc(F)cc2)[C@@H](c2ccc(O)cc2)N1c1ccc(F)cc1` [Ezetimibe], the cell viability is 1.09. Turning to `CC(O)(P(=O)(O)O)P(=O)(O)O` [Sodium etidronate], the cell viability is 1.06. With `CC(O)(P(=O)(O)O)P(=O)(O)O` [Etidronate] the figure was 1.13. Turning to `CC(C)c1ccc(NC(=O)c2cccs2)c(-c2nc3ccccc3[nH]c2=O)c1`, the cell viability was found to be 1.19. As for `O=C(O)CCCC[C@@H]1CCSS1` (racemic) [Thioctic acid], the cell viability was 0.989. To `Nc1cc(F)ccc1NC(=O)/C=C/c1cnn(C/C=C/c2ccccc2)c1` belongs 0.981; to `O=C(Nc1nccs1)C(c1cc(F)ccc1O)N1Cc2ccccc2C1=O` (centres undefined), 0.913. Regarding `N[C@@H](Cc1ccc(O)cc1)C(=O)O` [Tyrosine], the cell viability came to 1.21. As for `CN(Cc1cnc2nc(N)nc(N)c2n1)c1ccc(C(=O)N[C@@H](CCC(=O)O)C(=O)O)cc1` [Methotrexate], the cell viability came out at 0.375.

For the compound `CCCCCCCCCCCCCCCCOP(=O)([O-])OCC[N+](C)(C)C` [Miltefosine], the cell viability was found to be 1.14. To `COc1cc(C(C)=O)ccc1O` [Acetovanillone] belongs 1.19; to `CC/C(=C(/c1ccc(/C=C/C(=O)O)cc1)c1ccc2[nH]ncc2c1)c1ccc(F)cc1Cl`, 1.06.

Consider `CC(=O)OCC1=CO[C@@H](OC(=O)CC(C)C)[C@H]2C1=C[C@H](OC(=O)CC(C)C)[C@]21CO1` [Valepotriate], for which the cell viability was found to be 1.02. For the compound `C=CC(C)(C)c1cc(/C=C/C(=O)c2ccc(O)cc2)c(OC)cc1O` [Licochalcone A], the cell viability worked out at 1.1. With `C[C@]12CC[C@@H]3c4ccc(OS(=O)(=O)O)cc4CC[C@H]3[C@@H]1CCC2=O` [Estropipate] the figure was 1.11. As to `COC(=O)c1ccc([C@H]2c3[nH]c4ccccc4c3C[C@H](C(=O)OC)N2C(=O)CCl)cc1`, the cell viability came out at 0.214. Consider `Cc1ccc(S(=O)(=O)NC(=O)NN2CCCCCC2)cc1` [Tolazamide], for which the cell viability worked out at 0.892.

On to `CN1CCN(c2c(F)cc3c(=O)c(C(=O)O)cn4c3c2OCN4C)CC1` [Marbofloxacin], for which the cell viability is 1.16. To `CCOC(=O)c1ccc(N)cc1` [Benzocaine] belongs 0.878; to `CC(CCc1ccccn1)(CCc1ccccn1)C(=O)c1ccccc1` [JAK2 Inhibitor V], 1.08; to `C[C@H]1[C@H](C)CC[C@]2(C(=O)O)CC[C@]3(C)C(=CC[C@@H]4[C@@]5(C)C[C@@H](O)[C@H](O)[C@@](C)(CO)[C@@H]5CC[C@]43C)[C@H]12` [Asiatic acid], 0.941.

Turning to `CCN(CC)CCOC(=O)C(c1ccccc1)c1ccccc1` [Adiphenine hydrochloride], the cell viability was 1.17. With `OC(CCCN1CCCCC1)(c1ccccc1)c1ccccc1` [Diphenidol hydrochloride] the figure was 1.17; with `CCCCCCCCCCCCc1ccc(S(=O)(=O)Nc2nncs2)cc1`, 1.01; with `Oc1c(F)cc(-c2cnccc2-c2ccc(N3CCOCC3)cc2)cc1F`, 0.99. Consider `CCCCCCCc1ccc(CCc2cccc(O)c2C(=O)O)cc1`, for which the cell viability stood at 1.06. Take `O=c1cc(-c2ccc(O)cc2)oc2c([C@@H]3O[C@H](CO)[C@@H](O)[C@H](O)[C@H]3O)c(O)cc(O)c12` [Vitexin]: the cell viability is 1.06. To `CCN(c1cc(C#CCN2CCOCC2)cc(C(=O)NCc2c(C)cc(C)[nH]c2=O)c1C)[C@H]1CC[C@H](N(C)CCOC)CC1` belongs 1.2. To `Cc1noc(C)c1-c1ccc(-c2cc(C(N)=O)c(NC(N)=O)s2)c(O[C@H]2CCNC2)c1` belongs 1.05; to `Cc1ccc([N+](=O)[O-])cc1S(=O)(=O)N(C)/N=C/c1cnc2ccc(Br)cn12`, 0.165. As for `Cc1ccc([N+](=O)[O-])cc1S(=O)(=O)N(C)/N=C/c1cnc2ccc(Br)cn12` [PIK-75  hydrochloride], the cell viability was found to be 0.153. For the compound `Cc1cc(C)cc(Oc2ccc(CNC(=O)[C@H](C)N)cc2C)c1`, the cell viability was 0.971. On to `CC(=O)CC/C=C(\C)CC/C=C(\C)CC/C=C(\C)CCC=C(C)C` [Teprenone], for which the cell viability was 1.01. With `COc1ccc(-c2ccc3c(N4CCOCC4)nc(N4C[C@@H](C)O[C@@H](C)C4)nc3n2)cc1CO` the figure was 0.82; with `CC(C)(C)S(=O)(=O)c1ccc2nccc(Nc3n[nH]c4ccc(F)cc34)c2c1`, 1.01; with `COc1cc(OC)c(/C=C/S(=O)(=O)Cc2ccc(OC)c(NCC(=O)O)c2)c(OC)c1`, 0.416. On to `CC/C(=C(/CC)c1ccc(O)cc1)c1ccc(O)cc1` [Diethylstilbestrol], for which the cell viability came out at 0.975. To `CC1=C(/C=C/C(C)=C/C=C/C(C)=C\C(=O)O)C(C)(C)CCC1` [Isotretinoin] belongs 0.766.

Consider `CSc1ccc2c(c1)N(CCC1CCCCN1C)c1ccccc1S2` (centres undefined) [Thioridazine hydrochloride], for which the cell viability turned out to be 1.14. To `Cc1cc(C=C2SC(=O)N(c3ccccc3)C2=O)c(C)n1-c1cccnc1` belongs 0.982.

As for `Cc1cc(-c2ccccc2)nnc1NCCN1CCOCC1` [Minaprine dihydrochloride], the cell viability is 1.14. With `NC(N)=Nc1nc(CSCC/C(N)=N/S(N)(=O)=O)cs1` [Famotidine], the cell viability was determined as 1.08. To `COc1cc(N2CCC(N3CCN(C)CC3)CC2)ccc1Nc1ncnc(Nc2ccccc2S(=O)(=O)C(C)C)n1` belongs 0.64; to `CCN(CCO)CCCC(C)Nc1ccnc2cc(Cl)ccc12` (centres undefined) [Hydroxychloroquine sulfate], 1.21; to `Cc1nc(Nc2ncc(C(=O)Nc3c(C)cccc3Cl)s2)cc(N2CCN(CCO)CC2)n1` [Dasatinib], 0.872. Turning to `Cc1nc(Nc2ncc(C(=O)Nc3c(C)cccc3Cl)s2)cc(N2CCN(CCO)CC2)n1` [Dasatinib monohydrate], the cell viability was found to be 0.77. With `CCN1CCN(Cc2ccc(-c3cc4c(N[C@H](C)c5ccccc5)ncnc4[nH]3)cc2)CC1` the figure was 1.04. On to `Cn1cc(-c2cc(Oc3cc(F)c(NC(=O)C4(C(=O)Nc5ccccc5)CC4)cc3F)ccn2)cn1`, for which the cell viability was 1.09. To `CC(C)c1ccc2c(c1)c(SC(C)(C)C)c(CC(C)(C)C(=O)O)n2Cc1ccc(Cl)cc1` belongs 0.992. With `COc1cc(O)c2c(=O)cc(-c3ccc(O)cc3)oc2c1` [Genkwanin], the cell viability worked out at 1.06. With `Cc1nc(-c2ccc(OCC(C)C)c(C#N)c2)sc1C(=O)O` [Febuxostat] the figure was 1.15; with `CC(=O)[C@H]1CC[C@H]2[C@@H]3CC=C4C[C@@H](O)CC[C@]4(C)[C@H]3CC[C@]12C` [Pregnenolone], 1.24; with `CN(C)c1ccc(C(=C2C=CC(=[N+](C)C)C=C2)c2ccc(N(C)C)cc2)cc1` [Crystal Violet], 0.714. With `CC(C(=O)O)c1ccc2c(c1)CC(=O)c1ccccc1S2` (centres undefined) [Zaltoprofen] the figure was 1.11; with `C=C1/C(=C\C=C2/CCC[C@]3(C)[C@@H]([C@H](C)/C=C/[C@H](C)C(C)C)CC[C@@H]23)C[C@@H](O)C[C@@H]1O` [Doxercalciferol], 0.887.
